Assay results from the supplement of paper PMC6206098.
± gives the uncertainty stated by the source. The sequences are guide strands of siRNAs; only the seed at positions 2 to 7 varies.

Assays:
HeyA8 = assay: cell viability relative to lipid-only control; higher = less toxic; details: concentration: 10 nM; 96 h; Homo sapiens
M565 = assay: as above; details: concentration: 10 nM; 96 h; Mus musculus
H460 = assay: as above; details: concentration: 10 nM; 96 h; Homo sapiens
3LL = assay: cell viability relative to siNT1 control; HeyA8 human ovarian and H460 human lung cancer; M565 mouse liver and 3LL mouse lung cancer; siNT1 is a non-toxic control siRNA; higher = less toxic; details: concentration: 10 nM; 96 h; Mus musculus
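For cell viability relative to lipid-only control in this document: reverse lipid transfection in 384-well plates, in triplicate, of duplexes on a non-toxic 19mer backbone with passenger strand 2′-O-methylated at positions 1 and 2, luminescence viability read-out.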
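For cell viability relative to siNT1 control in this document: Luminescence-based viability of cells reverse transfected in 384-well plates with lipid-complexed siRNAs built on a non-toxic 19mer backbone whose passenger strand carries 2′-O-methyl groups at positions 1 and 2, triplicates.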

| Sequence | cell viability (HeyA8) [%] | cell viability (M565) [%] | cell viability (H460) [%] | cell viability (3LL) [%] |
| --- | --- | --- | --- | --- |
| UGAAUGCACAUGUAAACCAAA | 59.9 ± 6 | 17 ± 2.3 | 65.3 ± 12 | 29.6 ± 5.3 |
| UUGGCUCACAUGUAAACCAAA | 72.3 ± 3.6 | 88.5 ± 11 | 44.1 ± 6.9 | 43.6 ± 5.1 |
| UACAUUGACAUGUAAACCAAA | 77.2 ± 12 | 70.3 ± 10 | 74.4 ± 6.7 | 98.2 ± 19 |
| UGACGUUACAUGUAAACCAAA | 92.5 ± 3.6 | 30.1 ± 0.83 | 83.91 ± 0.59 | 65.3 ± 6.4 |
| UUGCUUGACAUGUAAACCAAA | 70.4 ± 4.2 | 92.2 ± 11 | 91.5 ± 16 | 53.9 ± 12 |
| UAGGGUCACAUGUAAACCAAA | 7.6 ± 0.27 | 9.82 ± 2.6 | 30.8 ± 1.2 | 8.98 ± 2.3 |
| UAGGACCACAUGUAAACCAAA | 77.9 ± 6.1 | 23.8 ± 4.9 | 63.4 ± 5.8 | 27.5 ± 1.5 |
| UUUUUCAACAUGUAAACCAAA | 84.3 ± 8.6 | 108 ± 16 | 83.8 ± 7.7 | 101 ± 9.4 |
| UUUUGUAACAUGUAAACCAAA | 101 ± 3.4 | 108 ± 12 | 75 ± 13 | 99.7 ± 3.6 |
| UUCGCCUACAUGUAAACCAAA | 82.3 ± 9.7 | 101 ± 14 | 81.3 ± 20 | 40.6 ± 8.7 |
| UCUGAUCACAUGUAAACCAAA | 75.3 ± 4.7 | 47.9 ± 10 | 49.6 ± 5.9 | 102 ± 18 |
| UACUCUGACAUGUAAACCAAA | 94.6 ± 8 | 52.7 ± 7.1 | 92 ± 8.6 | 88.5 ± 4.3 |
| UGACACCACAUGUAAACCAAA | 21.4 ± 0.62 | 4.96 ± 1.3 | 28.4 ± 7.4 | 20.3 ± 4.7 |
| UUUCUCGACAUGUAAACCAAA | 90.5 ± 7.2 | 79.5 ± 5.4 | 37.2 ± 6.8 | 99.3 ± 6.3 |
| UCACUGGACAUGUAAACCAAA | 43.1 ± 4.2 | 32.2 ± 5 | 29.8 ± 5.6 | 66.7 ± 16 |
| UGUACGCACAUGUAAACCAAA | 27.3 ± 25 | 61 ± 3.3 | 66 ± 6.1 | 80.5 ± 1.8 |
| UAGGAUAACAUGUAAACCAAA | 84.3 ± 6.8 | 66 ± 8.8 | 84.4 ± 13 | 84.5 ± 13 |
| UGGUUGUACAUGUAAACCAAA | 22.6 ± 1.1 | 77.2 ± 14 | 66.5 ± 3.1 | 84.7 ± 5.9 |
| UCAUAGAACAUGUAAACCAAA | 86.7 ± 1.7 | 50.9 ± 12 | 41.6 ± 2.6 | 91 ± 19 |
| UUGUACAACAUGUAAACCAAA | 75.6 ± 3.3 | 61.4 ± 7.5 | 68.4 ± 13 | 33.6 ± 5.1 |
| UAGGUCGACAUGUAAACCAAA | 48.4 ± 4.6 | 47.8 ± 2.8 | 68.2 ± 19 | 73.9 ± 4.5 |
| UUCUAGGACAUGUAAACCAAA | 82.3 ± 3.2 | 93.1 ± 4.6 | 39.7 ± 1.5 | 62.1 ± 12 |

| Sequence | cell viability (HeyA8) [%] | cell viability (M565) [%] | cell viability (H460) [%] | cell viability (3LL) [%] |
| --- | --- | --- | --- | --- |
| UUCAUCGACAUGUAAACCAAA | 74.9 ± 15 | 83.9 ± 6.8 | 69.8 ± 8.1 | 84.1 ± 21 |
| UCUCCACACAUGUAAACCAAA | 71.7 ± 4.7 | 53.1 ± 16 | 63.7 ± 10 | 89.7 ± 13 |
| UAUGUUGACAUGUAAACCAAA | 100 ± 3.3 | 71.4 ± 21 | 93.6 ± 5.2 | 119 ± 14 |
| UACUCCGACAUGUAAACCAAA | 65.4 ± 4.7 | 33.2 ± 2.3 | 88.1 ± 7.6 | 76.8 ± 9.2 |
| UUAUCCAACAUGUAAACCAAA | 75.2 ± 6 | 45 ± 4.7 | 66.9 ± 4.3 | 57.7 ± 7.1 |
| UUUCGUUACAUGUAAACCAAA | 93.1 ± 2.1 | 81.4 ± 15 | 74.7 ± 11 | 99.1 ± 10 |
| UAUAUGUACAUGUAAACCAAA | 71.7 ± 3.2 | 78.1 ± 4.6 | 68.7 ± 4.1 | 39.5 ± 11 |
| UGUGGCUACAUGUAAACCAAA | 40.5 ± 0.98 | 14.1 ± 4.3 | 39.5 ± 2.7 | 5.69 ± 3.2 |
| UCGUUAGACAUGUAAACCAAA | 76.2 ± 12 | 58.6 ± 2.6 | 85.6 ± 17 | 90.6 ± 12 |
| UAAAUCCACAUGUAAACCAAA | 72.3 ± 5.9 | 69.8 ± 12 | 62 ± 6.6 | 56.6 ± 7.4 |
| UCCUAAAACAUGUAAACCAAA | 87.8 ± 5.8 | 81.9 ± 17 | 78.1 ± 12 | 88.2 ± 16 |
| UAGCUCAACAUGUAAACCAAA | 75.8 ± 3.8 | 50.1 ± 7.4 | 83.8 ± 5.7 | 70.1 ± 12 |
| UAUGUGUACAUGUAAACCAAA | 54.4 ± 7.3 | 61.8 ± 18 | 54.6 ± 1.5 | 32.5 ± 9.6 |
| UGCAUGGACAUGUAAACCAAA | 40.4 ± 4.9 | 26.9 ± 2.6 | 53.8 ± 5.5 | 57.9 ± 16 |
| UUCCGGUACAUGUAAACCAAA | 65.3 ± 11 | 21.1 ± 1.5 | 70.2 ± 1.4 | 56.8 ± 20 |
| UCACACGACAUGUAAACCAAA | 75.2 ± 1.3 | 63.5 ± 7.9 | 23.2 ± 4.1 | 92.8 ± 10 |
| UGGGGCCACAUGUAAACCAAA | 2.13 ± 0.24 | 22.5 ± 9.4 | 11.5 ± 0.8 | 22.9 ± 2.9 |
| UGGGAAGACAUGUAAACCAAA | 59.9 ± 4 | 25.6 ± 9.5 | 71.8 ± 12 | 77.9 ± 4.5 |
| UGGUUCAACAUGUAAACCAAA | 28.5 ± 3 | 19.8 ± 2.8 | 52.7 ± 2.4 | 82 ± 7.3 |
| UUACGGAACAUGUAAACCAAA | 103 ± 4.2 | 111 ± 33 | 96.2 ± 10 | 82.1 ± 3.7 |
| UUCAGAAACAUGUAAACCAAA | 73.4 ± 14 | 82.3 ± 7.9 | 59.3 ± 0.66 | 102 ± 13 |
| UUCAUGCACAUGUAAACCAAA | 32.7 ± 1.6 | 26.1 ± 5.1 | 39 ± 0.89 | 12.5 ± 2.3 |
